From PubChem BioAssay AID651820 (National Center for Advancing Translational Sciences (NCATS), 2012)
Among all 340,000 compounds or so, about 12,000 (3.5%) were called active. Inconclusive means that the source gave no clear call. Such entries were picked first, then a sample of the others. Calls follow the shape of the dose curve; as a rule, active = well fitted inhibition curve with a large enough effect; inconclusive = small, poorly fitted or top-dose-only effect, or another doubt; inactive = no such curve, though single readings can be large or run the other way. Potencies of inconclusive entries are left out as doubtful fits.

Assay: qHTS Assay for Inhibitors of Hepatitis C Virus (HCV)
Conditions: Huh7.5.1 HCVcc-Cre (HCVcc is cell-culture hepatitis C virus) infection, luciferase reporter, 44 h; activity change, negative = inhibition: at 41.8 µM (top of the series)
Method in brief: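 Luciferase read-out (15 sec integration) after a 15 min room-temperature substrate step quantifies HCVcc-Cre infection. Cells, 1,000 per well, had compound added 4 h post-plating, then virus at ~0.5 moi, and were cultured 44 h.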
% is scaled to controls: 0 for no effect and ±100 for the full control effect; potency is read from the fitted curve at half-maximal effect; tags tell the direction and shape of the fitted curve.

| SMILES | Potency | activity change, negative = inhibition |
| --- | --- | --- |
| CC1CC(C)CN(CCCNC(=O)c2ccc3nc(N4CCCCC4)sc3c2)C1 (centres undefined) | inconclusive [inhibitor, single point] | – |
| C[C@]12c3[nH]c4cc(-c5ccco5)ccc4c3CCN1C(=O)[C@@H](CC(=O)NCCC1=CCCCC1)C[C@@H]2C(=O)N1CCOCC1 | inconclusive [inhibitor, partial curve] | – |
| CCOC(=O)C1=C(C)N=c2s/c(=C\c3cc(OC)c(OC)c(OC)c3)c(=O)n2C1/C=C/c1ccccc1 (centres undefined) | inconclusive [inhibitor, single point] | – |
| CC1CCN(c2nc(N(C)c3ccccc3)nc(N)c2[N+](=O)[O-])CC1 | – | inconclusive: -46.7% [inhibitor] |
| COCCn1c(CN2CCN(c3ccc(OC)cc3)CC2)nc2c1c(=O)n(C)c(=O)n2C | inconclusive [inhibitor, single point] | – |
| O=C(Nc1ccc(CN2CCS(=O)(=O)CC2)cc1)c1ccc(C(F)(F)F)cc1 | active: 5.62 µM | – |
| O=C(Nc1ccc2c(c1)CCC2)c1ccc(Br)s1 | inconclusive [inhibitor, partial curve] | – |
| CCOc1ccc(CCNC(=O)COC(=O)CCc2cc(OC)c(OC)c(OC)c2)cc1OCC | – | inactive: -3.92% |
| COc1ccc(/C(C)=N/OCC(=O)Nc2nc3ccccc3s2)cc1OC | inconclusive [inhibitor, full curve] | – |
| COc1ccc(NC(=O)CN(C)C(=O)c2cccc(S(=O)(=O)N3CCN(Cc4ccccc4)CC3)c2)cc1 | inconclusive [inhibitor, partial curve] | – |
| COc1ccccc1C1=NNC(=Nc2cccc(S(=O)(=O)N(C)C)c2)SC1 | active: 12.6 µM | – |
| Cc1ccc(N2CCN(CC(O)COc3cccc(C)c3)CC2)cc1 (centres undefined) | – | inactive: -5.28% |
| Cc1ccc(C(=O)COC(=O)c2ccc(-c3cnc4ccccc4n3)cc2)cc1C | – | inactive: -26.7% |
| CCOC(=O)c1ccc(NC(=O)CSc2nnc(CNc3ccc(OC)cc3)n2C)cc1 | – | inactive: 2.76% |
| Cc1cccc(OC(C)C(=O)Nc2nc(-c3ccncc3)cs2)c1 (centres undefined) | inconclusive [inhibitor, single point] | – |
| O=C(COc1ccc2c3c(c(=O)oc2c1)CCC3)Nc1ccc(CN2CCOCC2)cc1 | – | inactive: -3.4% |
| C=CCNC(=O)CSc1nc2sc3c(c2c(=O)n1CCCOC)CCC3 | inconclusive [inhibitor, partial curve] | – |
| CCCCN(C)CCNC(=O)c1cc2c(-c3cccc(OC)c3)nn(C)c2s1 | inconclusive [inhibitor, partial curve] | – |
| COc1cc(/C=N/NC(=O)c2nnn(-c3nonc3N)c2C(C)C)ccc1OCc1ccccc1 | active: 14.1 µM | – |
| CC(C)NCC(O)COC1CCC(C(C)(C)C)CC1 (centres undefined) | inconclusive [inhibitor, partial curve] | – |
| Cc1cccc(SC2CCN(C(=O)C3CCC(=O)N(C4CC4)C3)CC2)c1 (centres undefined) | – | inactive: -11.4% |
| CC(=O)c1cccc(NC(=O)c2cc(=O)[nH]c3ccccc23)c1 | inconclusive [inhibitor, partial curve, poor fit] | – |

| SMILES | Potency | activity change, negative = inhibition |
| --- | --- | --- |
| CC(=O)Nc1cccc(NC(=O)c2cc(-c3cccnc3)nc3ccc(Cl)cc23)c1 | inconclusive [inhibitor, single point] | – |
| Cc1ccc(N2CCN(C(=S)c3ccc(N(C)C)cc3)CC2)cc1 | inconclusive [inhibitor, single point] | – |
| O=C(NCCc1nc2ccccc2[nH]1)c1ccc(F)cc1 | inconclusive [inhibitor, full curve] | – |
| COc1ccc(CCNC(=O)COC(=O)Cc2ccccc2[N+](=O)[O-])cc1 | – | inactive: 10.1% |
| CCOC(=O)c1sc(NC(=O)/C=C/c2c(F)cccc2Cl)nc1C | – | inactive: 11.4% |
| COc1cccc(NC(=O)CN(C)C(=O)c2cc(-c3cccc(Br)c3)nc3ccccc23)c1 | inconclusive [inhibitor, single point] | – |
| O=C(Oc1ccc(OC(=O)C2CCC2)cc1)C1CCC1 | inconclusive [inhibitor, single point] | – |
| Clc1ccc2c(N/N=C/c3cccnc3)ccnc2c1 | – | inactive: -21.2% |
| COc1cccc(CNC(=O)c2ccc(C)c(S(=O)(=O)N3CCCCC3)c2)c1 | active: 10 µM | – |
| O=C(CNC(=O)c1ccco1)NNC(=O)c1ccc(Br)cc1 | – | inactive: 20.7% |
| COC(=O)c1cc2c(ccn2-c2ccc(F)cc2)n1Cc1cccc(OC)c1 | inconclusive [inhibitor, partial curve] | – |
| CC(=O)Oc1ccccc1-c1nc(C)nc(N(C)C(C)=O)n1 | inconclusive [inhibitor, single point] | – |
| Cc1cc(NC(=O)c2sc(Nc3ccc(F)cc3)nc2N)no1 | – | inactive: 8.68% |
| COc1ccccc1/C=N/NC(=O)c1cc2c(OC)c(OC)ccc2[nH]1 | inconclusive [inhibitor, partial curve, poor fit] | – |
| CCOC(=O)c1cnc(SCC(=O)Nc2ccccc2C(=O)OC)nc1N | inconclusive [inhibitor, single point] | – |
| CN(C)S(=O)(=O)c1cccc(NC(=O)CCc2nc3sc4c(c3c(=O)[nH]2)CCCC4)c1 | inconclusive [inhibitor, partial curve] | – |
| CC(C)NC(=O)CSc1nnc(-c2ccc(F)cc2)c2ccccc12 | – | inactive: -25.9% |
| Cc1nc(SCC(=O)c2cc3ccccc3oc2=O)c(C#N)c(-c2ccccc2)c1C(=O)Nc1ccccc1 | inconclusive [inhibitor, single point] | – |
| COc1ccc(NS(=O)(=O)c2ccc(C(=O)Nc3c(C)n(C)n(-c4ccccc4)c3=O)cc2)cc1 | – | inactive: 23.2% |
| CCC(C(=O)NC1CC1)n1nc(C)c2c(C)n(-c3ccc(C)cc3)nc2c1=O (centres undefined) | inconclusive [inhibitor, single point] | – |
| Cc1ccc(S(=O)(=O)N2CCN(C(=O)c3ccc(N4CCCCC4)c([N+](=O)[O-])c3)CC2)cc1 | inconclusive [inhibitor, single point] | – |
| Cc1ccc(C(=O)OCC(=O)NCCC2=CCCCC2)s1 | – | inactive: -25.8% |
